# The list shows a part of the results.
# B1: PhoQ; a variant is named by its letters at X, in order, P23837 (parent)
# chain: MKKLLRLFFPLSLRVRFLLATAAVVLVLSLAYGMVALIGYSVSFDKTTFRLLRGESNLFYTLAKWENNKLHVELPENIDKQSPTMTLIYDENGQLLWAQRDVPWLMKMIQPDWLKSNGFHEIEADVNDTSLLLSGDHSIQQQLQEVREDDDDAEMTHSVAVNVYPATSRMPKLTIVVVDTIPVELKSSYMVWSWFIYVLSANLLLVIPLLWVAAWWSLRPIEALAKEVRELEEHNRELLNPATTRELTSLVRNLNRLLKSERERYDKYRTTLTDLTHSLKTPLXXLQXXLRSLRSEKMSVSDAEPVMLEQISRISQQIGYYLHRASMRGGTLLSRELHPVAPLLDNLTSALNKVYQRKGVNISLDISPEISFVGEQNDFVEVMGNVLDNACKYCLEFVEISARQTDEHLYIVVEDDGPGIPLSKREVIFDRGQRVDTLRPGQGVGLAVAREITEQYEGKIVAGESMLGGARMEVIFGRQHSAPKDE
# Variants of: B1
# Experiment: enrichment ratio after two sorts for PhoP signalling (ratio (wild type AVST 3.29)); higher = more functional
# Settings: with PhoP (E. coli)
row,Variant,enrichment ratio
1,DQRL,≤ 0.25
2,MLLY,≤ 0.25
3,GIIY,≤ 0.25
4,NGNL,≤ 0.25
5,EDNN,≤ 0.25
6,QVLK,≤ 0.25
7,MVGQ,≤ 0.25
8,LNWN,≤ 0.25
9,TMVH,≤ 0.25
10,LEEN,≤ 0.25
11,QLIA,≤ 0.25
12,YSQM,1.08
13,LCGT,≤ 0.25
14,NMWT,≤ 0.25
15,DRNK,≤ 0.25
16,HRTT,≤ 0.25
17,RNYI,≤ 0.25
18,YNDT,≤ 0.25
19,LAQD,≤ 0.25
20,ELGQ,≤ 0.25
21,IEIF,≤ 0.25

row,Variant,enrichment ratio
1,FKGQ,≤ 0.25
2,SRMQ,≤ 0.25
3,MRTK,≤ 0.25
4,MFHN,≤ 0.25
5,PNIQ,≤ 0.25
6,VKVS,≤ 0.25
7,NKLQ,≤ 0.25
8,WQTP,≤ 0.25
9,TWFG,≤ 0.25
10,YVKW,≤ 0.25
11,APGS,≤ 0.25
12,VHCF,≤ 0.25
13,QLKY,≤ 0.25
14,AIIA,3.7
15,IPYQ,≤ 0.25
16,EFFH,≤ 0.25
17,VFVM,≤ 0.25
18,LNCA,≤ 0.25
19,WPIT,≤ 0.25
20,QCIC,≤ 0.25
21,FDVH,≤ 0.25

row,Variant,enrichment ratio
1,PLQH,≤ 0.25
2,VNHS,≤ 0.25
3,GVFM,≤ 0.25
4,WPWW,≤ 0.25
5,WLLM,≤ 0.25
6,LEYS,2.14
7,MQAI,7.47
8,GLKL,≤ 0.25
9,FGKQ,≤ 0.25
10,WHQE,≤ 0.25
11,ESEV,≤ 0.25
12,VTKQ,≤ 0.25
13,HNHA,≤ 0.25
14,RLCC,≤ 0.25
15,DKLQ,≤ 0.25
16,HTRC,≤ 0.25
17,KTLL,≤ 0.25
18,SSAC,11.3
19,DPCP,≤ 0.25
20,MRGT,≤ 0.25
21,INQV,≤ 0.25

row,Variant,enrichment ratio
1,NQHC,≤ 0.25
2,EAQL,≤ 0.25
3,MDGY,≤ 0.25
4,PIAL,≤ 0.25
5,DDYK,≤ 0.25
6,SQWD,≤ 0.25
7,ESHK,≤ 0.25
8,VDYT,≤ 0.25
9,ILDL,≤ 0.25
10,NYDS,≤ 0.25
11,RKLK,≤ 0.25
12,HHKG,≤ 0.25
13,KGFP,≤ 0.25
14,VMLH,≤ 0.25
15,DGFP,≤ 0.25
16,GMAV,1.84
17,FCKP,≤ 0.25
18,KDEL,≤ 0.25
19,ELDR,≤ 0.25
20,RQYP,≤ 0.25
21,FVIE,≤ 0.25
